Test results as given in paper PMC13083723 (Patterns, 2026).
Among all 5,400 compounds or so, about 190 (3.5%) showed an effect of 50% or more. The list shows a part of the results. Residues, ends and D or L forms follow the SMILES beside them.

Tested on: Vero-E6
Experiment: primary screen, phospholipidosis by LipidTOX staining; higher = more effect of the substance
Details: 10 µM
Method in brief: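 Single-concentration screen at 10 μM, with DMSO 0.1 v/v % and amiodarone 10 μM as controls. Read-out is LipidTOX Red phospholipid staining, which tolerates aldehyde fixation, in Vero-E6 cells.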

Structure (SMILES) | result_ITMP [%]
OCc1cc(C(O)CNCCCCCCOCCCCc2ccccc2)ccc1O (centres unmarked) | 20.5
CN1C(=O)N(c2cc(Cl)cc(Cl)c2)C(=O)[C@@]1(C)Cc1ccc(Br)cc1 | -1.86
CCCCc1ccc(C(N)=O)nc1 | 2.05
N=C(N)NCCC[C@H](N)C(=O)O | -5.83
Cc1nc2n(c(=O)c1CCN1CCC(c3noc4cc(F)ccc34)CC1)CCCC2 | 6.64
CNCCC(Oc1ccc(C(F)(F)F)cc1)c1ccccc1 (centres unmarked) | 54.3
CCC(=O)O[C@@H](OP(=O)(CCCCc1ccccc1)CC(=O)N1C[C@H](C2CCCCC2)C[C@H]1C(=O)[O-])C(C)C (some centres unmarked) | -3.03
C[C@@H](CN1CC(=O)NC(=O)C1)N1CC(=O)NC(=O)C1 | -2.06
O=C(C[C@H]1NCCC[C@@H]1O)Cn1cnc2cc(Br)c(Cl)cc2c1=O (racemic) | -8.46
CC(=O)Nc1ccc(CC(=O)O)cc1 | -1.98
CN1C(=O)C(F)=C[C@]2(C)[C@H]3CC[C@]4(C)[C@@H](C(=O)NCc5nc6cccnc6[nH]5)CC[C@H]4[C@@H]3CC[C@@H]12 | -2.39
Nc1c(-c2cccc(C(F)(F)F)c2)nsc1C(=O)O | -1.44
C/N=c1/nc(-c2ccccc2)n(-c2ccccc2)s1 | -1.31
Nc1ncnc2c1c(-c1cnc3[nH]ccc3c1)nn2C1CCCC1 | 3.22
Cc1c[nH]c(=O)n(CCCN2CCN(c3ccccc3OCC(F)(F)F)CC2)c1=O | -1.42
CC1=NN=C(c2ccc(N)cc2)c2cc3c(cc2C1)OCO3 | -5.77
COc1ccc2cc1Oc1ccc(cc1)C[C@H]1c3cc(c(OC)cc3CCN1C)Oc1c(OC)c(OC)cc3c1[C@H](C2)N(C)CC3 | 17.4
CCOCCOc1ccccc1C(N)=O | -0.1
C[C@]12C/C(=C/O)C(=O)C[C@@H]1CC[C@@H]1[C@@H]2CC[C@@]2(C)[C@H]1CC[C@]2(C)O | 3.4
O=C1CCc2cc(OCCCCc3nnnn3C3CCCCC3)ccc2N1 | -1.79
CC(=O)N1CCC(C(=O)N(CCCN2CCC(Cc3ccc(C(N)=O)cc3)CC2)c2ccc(C)c(Cl)c2)CC1 | -1.51
N#C[C@@H]1C[C@@H]2C[C@@H]2N1C(=O)[C@@H](N)C12CC3CC(CC(O)(C3)C1)C2 | -6.61

Structure (SMILES) | result_ITMP [%]
CCS(=O)(=O)CCn1c([N+](=O)[O-])cnc1C | -5.29
CC[C@H]1OC(=O)[C@H](C)C(=O)[C@H](C)[C@@H](O[C@@H]2O[C@H](C)C[C@H](N(C)C)[C@H]2O)[C@](C)(OC)C[C@@H](C)C(=O)[C@H](C)[C@H]2N(CCCCn3cnc(-c4cccnc4)c3)C(=O)O[C@]12C | 4.79
CCCCOc1cc(C(=O)NCCN(CC)CC)c2ccccc2n1 | 47.8
CC(C)(C)NCC(O)c1cc(Br)no1 (centres unmarked) | 0.54
Oc1ccc(-c2nc3cc(O)cc(Br)c3o2)cc1 | -1.8
C1=Cc2cccc(OCC3CNCCO3)c2C1 (centres unmarked) | 25.4
CC[C@]1(O)C[C@@H]2C[N@@](CCc3c([nH]c4ccccc34)[C@@](C(=O)OC)(c3cc4c(cc3OC)N(C)[C@H]3[C@@](O)(C(=O)OC)[C@H](OC(C)=O)[C@]5(CC)C=CCN6CC[C@]43[C@@H]65)C2)C1 | 8.57
CCC(C)SSc1ncc[nH]1 (centres unmarked) | -2.3
CC1(C)S[C@@H]2[C@H](NC(=O)C(C(=O)[O-])c3ccsc3)C(=O)N2[C@H]1C(=O)[O-] (some centres unmarked) | -2.7
Cc1coc2c1C(=O)C(=O)c1c-2ccc2c(C)cccc12 | -3.59
O=C(O)[C@H]1C[C@@H](CP(=O)(O)O)CCN1 | -3.97
COc1ccccc1-c1c[nH]c2ncc(-c3cncc(C(=O)N(C)C)c3)cc12 | -2.09
CCC1=C(C)CN(C(=O)NCCc2ccc(S(=O)(=O)NC(=O)N[C@H]3CC[C@H](C)CC3)cc2)C1=O | 7.17
O=C(O)c1ccccc1-c1ccc(C(F)(F)F)cc1 | -4.47
Nc1ncnc2c1ncn2CCOCP(=O)(O)O | -5.15
CNc1ccc([N+](=O)[O-])cc1-n1cnc(-c2ccc(C(F)(F)F)cc2)c1 | 3.84
Cc1cc(C)c(NC(=O)C2CC3CCC2C3)c(C)c1 (centres unmarked) | -9.32
CCOC(=O)[C@H](C)C[C@@H](Cc1ccc(-c2ccccc2)cc1)NC(=O)CCC(=O)[O-] | 0.47
CC(C)(c1ccc(O)cc1)c1ccc(O)cc1 | -3.93
N[C@@H](CC(=O)Nc1ccc(Oc2cc(F)c(F)cc2Br)cc1)C(=O)O | -6.52
CC1(C)NC(=O)N(c2ccc([N+](=O)[O-])c(C(F)(F)F)c2)C1=O | -1.03
CN(C)Cc1ccc(-c2nc3cccc4c3n2CCNC4=O)cc1 | 10.8

Structure (SMILES) | result_ITMP [%]
O=C(/C=C\n1cnc(-c2cc(C(F)(F)F)cc(C(F)(F)F)c2)n1)NNc1cnccn1 | 17.5
CCCCCCc1ccc(O)cc1O | -4.33
Cc1[nH]c(/C=C2\C(=O)Nc3ccc(S(=O)(=O)N(C)c4cccc(Cl)c4)cc32)c(C)c1C(=O)N1CCN(C)CC1 | 7.98
CCCCC(CC)CNC(=N)NC(=N)NCCCCCCNC(=N)NC(=N)NCC(CC)CCCC (centres unmarked) | 46.9
CCC(=O)OCC(=O)[C@@]1(OC(=O)CC)[C@@H](C)CC2C3CCC4=CC(=O)C=C[C@]4(C)C3(F)[C@@H](O)C[C@@]21C (some centres unmarked) | -3.71
COC(=O)[C@@H]1[C@H]2C[C@H]3c4[nH]c5ccccc5c4CCN3C[C@@H]2CC[C@@H]1O | 5.05
CCC(C)n1ncn(-c2ccc(N3CCN(c4ccc(OC[C@H]5CO[C@](Cn6cncn6)(c6ccc(Cl)cc6Cl)O5)cc4)CC3)cc2)c1=O (some centres unmarked) | -3.48
CCOc1cc(/C=C2/C(=O)N(c3ccccc3)N=C2C)cc(Cl)c1OCC(=O)OC | -2.3
CN[C@H]1C[C@@H](N)[C@H](O)[C@@H](O[C@@H]2O[C@H](CO)[C@H](O)[C@@H]3OC4(O[C@H]23)O[C@H]([C@@H](N)CO)[C@H](O)[C@H](O)[C@H]4O)[C@@H]1O (some centres unmarked) | -4.79
COc1ccc(C(=O)C2CCN(CC(=O)N(Cc3nc4c(c(=O)[nH]3)COCC4)CC3CC3)CC2)cc1 | 0.39
COC(=O)[C@H](Cc1cccc(C(=N)N)c1)[C@@H](C)NC(=O)c1ccc(-c2cc[n+]([O-])cc2)cc1 | 1.38
Cc1nc(NC(=O)N2CCC[C@H]2C(N)=O)sc1-c1ccnc(C(C)(C)C(F)(F)F)c1 | 7.72
O=C(CCCCCCCn1cc(-c2cccnc2)nn1)Nc1ccccc1-c1ccccc1 | -1.05
CCCCc1nc(C)c(CC(=S)N(C)C)c(=O)n1Cc1ccc(-c2ccccc2-c2nnn[nH]2)cc1 | 0.5
Nc1nncs1 | -3.67
CCC(=O)NC[C@H](Cc1ccc(OCCc2nc(-c3ccccc3)oc2C)cc1)N/C(C)=C\C(=O)c1ccc(C(F)(F)F)cc1 | -1.71
C=C[C@@H]1C[C@]1(NC(=O)[C@@H]1C[C@@H](Oc2ncc(OC)c3ccc(Cl)cc23)CN1C(=O)[C@@H](NC(=O)OC(C)(C)C)C(C)(C)C)C(=O)NS(=O)(=O)C1CC1 | -1.19
Fc1cc(-c2cccc3ncc(-c4cnn(C5CCNCC5)c4)nc23)cc(F)c1CN1CCOCC1 | 73.3
Nc1cc(-c2ccncc2)c[nH]c1=O | -4.36
CCOC(=O)c1c(C)n(C)c2ccc(O)cc12 | -4.04
c1ccc2c(c1)CCCc1cc(NCCN3CCOCC3)nnc1-2 | 1.05
CC(N)C12CC3CC(CC(C3)C1)C2 (centres unmarked) | -4.54

Structure (SMILES) | result_ITMP [%]
N#Cc1ccc(Oc2ccc3c(c2)COB3O)cc1 | -2.68
O=C(NCC(=O)N1CCCC1)Nc1ccc2cnccc2c1 | -2.35
O=C([O-])[C@H](CC(=O)N1C[C@H]2CCCC[C@H]2C1)Cc1ccccc1 | -4.71
CC(=O)OCC(=O)[C@@]1(O)CCC2C3CCC4=CC(=O)CC[C@]4(C)C3[C@@H](O)C[C@@]21C (some centres unmarked) | -4.93
CN(CCOc1ccc(CC2SC(=O)NC2=O)cc1)c1ccccn1 (centres unmarked) | 0.43
c1ccc2nc(C3=NCCN3)cnc2c1 | -8.6
CCOP(=S)(OCC)Oc1nc(Cl)c(Cl)cc1Cl | -6.6
CN(C)c1ccc2c(c1)Sc1cc(N(C)C)ccc1N2 | -0.16
CCOC(=O)c1ncn2c1CN(C)C(=O)c1cc(N=[N+]=[N-])ccc1-2 | -4.86
OC[C@H]1NC[C@@H](O)[C@@H](O)[C@@H]1O | -2.05
COc1ccc(/C=C2\CCCN=C2c2cccnc2)c(OC)c1 | 1.1
CCCc1nc(C(C)(C)O)c(C(=O)O)n1Cc1ccc(-c2ccccc2-c2nnn[nH]2)cc1 | -2.67
N[C@@H](Cc1ccc(O)cc1)C(=O)NCC(=O)NCC(=O)O (H-Tyr-Gly-Gly-OH) | -2.1
Cc1ccc2c(Cl)cc(Cl)c(O)c2n1 | -4.16
N#Cc1cc(F)cc(-c2nc(-c3ccc(F)cn3)no2)c1 | -1.87
N=C(N)N/N=C/c1c(Cl)cccc1Cl | 1.84
CCC[C@@H]1CC2=CC(=O)CC[C@]2(C)[C@H]2CC[C@@]3(C)[C@@H](CC[C@@]3(O)CCC(=O)[O-])[C@H]12 | -2.26
OC(CCN1CCCCC1)(c1ccccc1)C1CCCCC1 (centres unmarked) | 23.4
CC1(C)OC[C@H](NC(=O)Nc2ccc(Br)cc2Br)[C@H](c2ccccc2)O1 | 3.34
Cc1ccc(O)c(/N=N/c2ccccc2)n1 | -1.01
